Test results reported in the antibiotic and cytotoxicity screens of Wong et al. (2023).
The other results are listed elsewhere or left out.

Tested on: S. aureus RN4220
Assay: growth inhibition call (relative growth <= 0.2)
Conditions: 50 µM

Growth inhibition call, inactive:
C[C@H]1CCCCO[C@@H](CN(C)C(=O)c2ccncc2)[C@@H](C)CN([C@@H](C)CO)C(=O)c2cc(NS(=O)(=O)c3ccc(Cl)cc3)ccc2O1, COc1cccc(OC)c1C(=O)NN, C[C@H](CO)N1C[C@H](C)[C@H](CN(C)C(=O)Nc2ccc(F)cc2)OCCCC[C@H](C)Oc2ccc(NC(=O)CCCN(C)C)cc2C1=O, COc1ccc(NC(=O)N(C)C[C@H]2Oc3ccc(NS(=O)(=O)c4cn(C)cn4)cc3CC(=O)N([C@H](C)CO)C[C@@H]2C)cc1, C[C@H](CO)N1C[C@H](C)[C@@H](CN(C)S(=O)(=O)c2cn(C)cn2)Oc2c(NC(=O)Nc3ccccc3)cccc2C1=O, COc1ccc(NC(=O)Nc2cccc3c2O[C@H](CN(C)S(C)(=O)=O)[C@@H](C)CN([C@H](C)CO)C3=O)cc1, C[C@H]1CN([C@@H](C)CO)S(=O)(=O)c2ccc(C#Cc3ccccc3F)cc2O[C@@H]1CN(C)C(=O)c1ccc2c(c1)OCO2, COc1cccc(NC(=O)N(C)C[C@@H]2Oc3cc(C#CC4(O)CCCC4)ccc3S(=O)(=O)N([C@@H](C)CO)C[C@H]2C)c1, C=CC(C)(O)CCC=C(C)C (stereo not given), Cc1noc(C)c1NC(=O)Nc1ccc2c(c1)C(=O)N([C@H](C)CO)C[C@@H](C)[C@H](CN(C)Cc1ccc(Oc3ccccc3)cc1)O2, Cc1ccc(S(=O)(=O)N(C)C[C@H]2OCCCC[C@@H](C)Oc3ccc(NC(=O)NC4CCCCC4)cc3C(=O)N([C@@H](C)CO)C[C@H]2C)cc1, Cc1ccc(S(=O)(=O)N(C)C[C@H]2OCCCC[C@@H](C)Oc3ccc(NC(=O)Cc4ccccc4)cc3C(=O)N([C@@H](C)CO)C[C@@H]2C)cc1, CC(C)NC(=O)Nc1ccc2c(c1)CC(=O)N([C@@H](C)CO)C[C@H](C)[C@@H](CN(C)Cc1ccc3c(c1)OCO3)O2, CC(CN)(Cc1ccccc1Cl)C(=O)O (stereo not given), Cc1ccc2c(N)[nH]nc2n1, CC(=O)N[C@@H]1[C@@H](Oc2ccc(C(C)=O)cc2)O[C@H](CO)[C@H](O)[C@@H]1O, C[C@H](CO)N1C[C@H](C)[C@H](CN(C)Cc2ccc3c(c2)OCO3)OCCCC[C@H](C)Oc2ccc(NC(=O)c3ccccc3)cc2C1=O, COc1ccc(CN(C)C[C@H]2OCCCC[C@@H](C)Oc3ccc(NS(=O)(=O)c4ccc(OC)cc4)cc3C(=O)N([C@@H](C)CO)C[C@H]2C)cc1, C[C@@H]1CN([C@@H](C)CO)C(=O)CCCn2nncc2CO[C@@H]1CN(C)S(=O)(=O)c1ccc2c(c1)OCCCO2, Cc1noc(C)c1NC(=O)N(C)C[C@H]1OCCCC[C@H](C)Oc2ccc(NS(=O)(=O)c3ccccc3)cc2C(=O)N([C@@H](C)CO)C[C@H]1C, COc1cccc(S(=O)(=O)N2C[C@@H](O)COC[C@@H]3O[C@@H](CC(=O)N4CCN(C)CC4)CC[C@H]32)c1, C[C@@H]1CCCCO[C@@H](CN(C)Cc2ccccc2)[C@@H](C)CN([C@H](C)CO)C(=O)c2cc(NC(=O)c3ccccc3)ccc2O1, C[C@H]1CN([C@@H](C)CO)S(=O)(=O)c2ccc(C#Cc3ccccc3F)cc2O[C@@H]1CN(C)C(=O)Cc1cccnc1, C[C@H]1CN([C@@H](C)CO)C(=O)c2cc(NS(=O)(=O)c3ccccc3)ccc2O[C@H]1CN(C)Cc1ccc(Oc2ccccc2)cc1, Cc1ccc(S(=O)(=O)Nc2cccc3c2O[C@H](CN(C)Cc2ccc(Oc4ccccc4)cc2)[C@@H](C)CN([C@@H](C)CO)C3=O)cc1, CC(C)(O)[C@H]1CC[C@@](C)([C@H]2[C@@H](O)C[C@@]3(C)[C@@H]4C[C@H](O[C@@H]5O[C@H](CO)[C@@H](O)[C@H](O)[C@H]5O)[C@H]5C(C)(C)[C@@H](O[C@@H]6OC[C@@H](O)[C@H](O)[C@H]6O)CC[C@@]56C[C@@]46CC[C@]23C)O1, Cc1ccc(S(=O)(=O)N(C)C[C@H]2Oc3ccc(NC(=O)CCN4CCOCC4)cc3CC(=O)N([C@H](C)CO)C[C@@H]2C)cc1, N[C@H](c1ccc2c(c1)OCCO2)c1ccco1, C[C@@H]1CN([C@H](C)CO)C(=O)c2cc(NC(=O)Nc3cccc4ccccc34)ccc2O[C@@H](C)CCCCO[C@@H]1CN(C)C(=O)NC1CCCCC1, C[C@@H]1CN([C@H](C)CO)C(=O)Cc2cc(NC(=O)Nc3ccc(F)cc3)ccc2O[C@H]1CN(C)Cc1ccc(Cl)c(Cl)c1
